# Experimental data: PubChem BioAssay AID485294 (National Center for Advancing Translational Sciences (NCATS), 2010)
# About 150 (0.041%) of roughly 370,000 compounds were called active. The shares of active, inactive and inconclusive entries below differ from those in the screen. Calls come from the whole dose curve; as a rule, active = well fitted inhibition curve with a large enough effect; inconclusive = small, poorly fitted or top-dose-only effect; inactive = flat fitted curve, though single readings scatter. Potencies of inconclusive entries are left out as doubtful fits.
# Biological target: Beta-lactamase (Escherichia coli (strain K12)) (UniProt P00811)
# Chain of UniProt P00811 (P00811 whole entry, looked up): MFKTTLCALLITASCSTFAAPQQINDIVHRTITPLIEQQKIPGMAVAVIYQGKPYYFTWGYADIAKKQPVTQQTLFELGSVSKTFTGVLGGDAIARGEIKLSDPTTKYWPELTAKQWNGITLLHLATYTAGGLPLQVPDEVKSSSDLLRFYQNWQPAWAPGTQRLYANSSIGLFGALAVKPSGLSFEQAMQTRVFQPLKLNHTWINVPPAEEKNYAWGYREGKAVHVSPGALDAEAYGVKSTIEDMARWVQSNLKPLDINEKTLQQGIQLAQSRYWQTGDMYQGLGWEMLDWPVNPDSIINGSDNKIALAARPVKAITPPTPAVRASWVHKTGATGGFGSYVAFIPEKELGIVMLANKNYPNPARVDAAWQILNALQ
# Assay: qHTS Inhibitors of AmpC Beta-Lactamase (assay with detergent); note: nearly all actives have a fitted effect of over 25% in size;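 for activity change, negative = inhibition: 0% = no-compound wells and -100% = no-enzyme wells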
# Conditions: AmpC hydrolysis of nitrocefin, absorbance 480 nm, 0.01% Triton; activity change, negative = inhibition: at 114 µM (top of the series)
# How it was run: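 20 mM phosphate pH 7.0 + 0.01% (detergent screen) or 0.0001% Triton X-100; 5.3 nM AmpC reagent; cpd preinc 15 min RT; nitrocefin (800 uM stock) to start; A480 q20 s × 4 min; Activity was normalised to no-enzyme and no-compound control wells.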
# Potency is the fitted concentration of half-maximal effect; tags give direction and shape of the fitted curve.
Structure (SMILES),Potency,"activity change, negative = inhibition"
COc1ccc(N(CC(=O)N/N=C/c2cc3ccc(OC)cc3nc2Cl)S(=O)(=O)c2ccccc2)cc1,"inconclusive [inhibitor, single point]",
CCC(CC)NC(=O)/C=C/c1ccccc1Cl,,inactive: -0.413%
O=C(COc1ccc(N2CC(C(=O)O)CC2=O)cc1)Nc1cccc(C(F)(F)F)c1 (stereo not given),"inconclusive [inhibitor, full curve]",
COc1ccc(-n2c(Cc3cccn3C)nnc2SCC(=O)Nc2ccc(F)cc2)cc1,"inconclusive [inhibitor, partial curve]",
CCC1CCCCN1CCCNC(=O)c1ccc2c(c1)N(Cc1ccccc1)C(=O)c1ccccc1S2(=O)=O (stereo not given),"inconclusive [inhibitor, partial curve]",
CCn1nc(C)c2c(-c3ccccc3)cc(=O)n(C(C)C(=O)NCc3cccc(OC)c3)c21 (stereo not given),,inactive: 18.8%
CCOC(=O)N1CCN(CC(O)COc2c(C)cc(C)cc2C)CC1 (stereo not given),,inactive: 1.78%
CC(C)(C)NC(=O)CSc1nc2ccc(NC(=O)CSc3nnnn3Cc3ccccc3)cc2s1,,inactive: 1.16%
CCOC(=O)C1=C(COC(=O)/C=C/c2ccc(SC)cc2)NC(=O)NC1C (stereo not given),"inconclusive [inhibitor, partial curve]",
O=C(CCN1C(=O)S/C(=C\c2ccccc2)C1=O)Nc1ccc(S(=O)(=O)Nc2nccs2)cc1,,inactive: -8.81%
O=c1c(Cc2ccc(F)cc2)c(O)ccn1C1CCCCC1,"inconclusive [inhibitor, partial curve]",
N#Cc1c2c(c(NCCCN3CCOCC3)n3c1nc1ccccc13)CCC2,"inconclusive [inhibitor, partial curve, poor fit]",
COc1cc(NS(=O)(=O)c2ccc(Nc3nc(-c4cccc([N+](=O)[O-])c4)cs3)cc2)nc(OC)n1,"inconclusive [inhibitor, full curve, poor fit]",
O=C1CCN(c2ccc([N+](=O)[O-])cc2F)CC1,"inconclusive [inhibitor, full curve, poor fit]",
COc1ccc(NC(=O)CSc2ncccc2C(=O)O)cc1OC,,inactive: 1.94%
CCCOc1ccc(/C=C/C(=O)N2CCOCC2)cc1,,inactive: 4.77%
Cc1nc(SCC(=O)Nc2c(C)nn(C)c2C)c2cnn(-c3ccccc3)c2n1,"inconclusive [inhibitor, partial curve]",
Clc1ccc(Sc2oc(/C=N/n3cnnc3)cc2Br)cc1,"inconclusive [inhibitor, partial curve]",
CCN(CC)c1ccc(C(=O)OCC(=O)N2CCCC2)cc1,"inconclusive [inhibitor, full curve]",
Cc1cc(C)cc(C(=O)Nc2ccc(NC(=O)Cc3ccccc3)cc2)c1,"inconclusive [inhibitor, full curve, poor fit]",
N/C(=N\OC(=O)COc1ccc(Cl)cc1Br)c1cccnc1,"inconclusive [inhibitor, single point]",
Cc1ccc(C)c(Nc2ncnc3onc(C)c23)c1,,inactive: 12.4%

Structure (SMILES),Potency,"activity change, negative = inhibition"
CCOCCc1nn2c(=O)cc(CSCC(=O)Nc3ccc(OC)cc3)nc2s1,,inactive: 5.31%
O=C(c1cnn2c(C(F)(F)F)cc(-c3ccccc3)nc12)N1CCCc2ccccc21,"inconclusive [inhibitor, full curve]",
COc1ccc(-c2nc3cc(C(C)C)ccc3o2)cc1NC(=O)COc1ccc(C)cc1C,,inactive: 23.7%
Cc1ccc(OCC(=O)N2CCN(C)CC2)c(Br)c1,"inconclusive [inhibitor, full curve, poor fit]",
CCOC(=O)c1sc(NC(=O)CSc2nnnn2-c2ccccc2)nc1C,"inconclusive [inhibitor, full curve, poor fit]",
Nc1nnc(SCc2cn3cc(Cl)ccc3n2)s1,,inactive: -0.114%
Cc1ccc(N(CC(=O)NCc2ccco2)C(=O)CCC(=O)Nc2nccs2)c(C)c1,"inconclusive [inhibitor, partial curve]",
CC(=O)Nc1ccc(S(=O)(=O)Oc2ccc(C(=S)N3CCC(O)CC3)cc2)cc1,"inconclusive [inhibitor, full curve]",
COc1ccc(C(=O)NCc2nnc(SCC(=O)Nc3ccccc3)n2-c2ccccc2)cc1,,inactive: 16.6%
CC(c1ccccc1)n1c(Cn2ncc3ccccc3c2=O)n[nH]c1=S (stereo not given),,inactive: 5.09%
O=[N+]([O-])c1ccc(Oc2ccc(S(=O)(=O)N3CCOCC3)cn2)cc1,"inconclusive [inhibitor, full curve, poor fit]",
Cc1c(NC(=O)C(C#N)=C2CCCCC2)c(=O)n(-c2ccccc2)n1C,"inconclusive [inhibitor, full curve]",
COc1ccc(CNC(=O)CN2N=C(c3ccccc3)CCC2=O)c(OC)c1,,inactive: 2.22%
CCCCCCn1c(N(CC)CC)nc2c1c(=O)[nH]c(=O)n2C,"inconclusive [inhibitor, partial curve]",
CCCCOC(=O)CNc1nnc(SCC(=O)OCC)[nH]c1=O,"inconclusive [inhibitor, full curve, poor fit]",
O=C(NC1CCCC1)C(c1ccc(F)cc1)N(Cc1ccc(F)cc1)C(=O)CCl (stereo not given),"inconclusive [inhibitor, full curve, poor fit]",
CN1CCc2nc(NC(=O)COc3ccc4ccccc4c3)sc2C1,"inconclusive [inhibitor, single point]",
CC(C)c1ccc(C2N3CC4([N+](=O)[O-])CN2CC([N+](=O)[O-])(C3)C4(C)C)cc1 (stereo not given),"inconclusive [inhibitor, full curve, poor fit]",
CCOC(=O)CCc1c(C)c2ccc(O)cc2oc1=O,"inconclusive [inhibitor, partial curve]",
O=C(c1cccnc1)N1CCN(CCCc2ccccc2)CC1,"inconclusive [inhibitor, partial curve, poor fit]",
O=C(Nc1nccs1)c1ccc(S(=O)(=O)c2ccccc2)cc1,"inconclusive [inhibitor, partial curve, poor fit]",
CCc1cccc(NC(=O)C(NC(=O)C2CCCCC2)C(C)C)c1 (stereo not given),"inconclusive [inhibitor, single point]",

Structure (SMILES),Potency,"activity change, negative = inhibition"
C=CCNC(=O)c1onc(CCl)c1C(=O)OC,"inconclusive [inhibitor, single point]",
Cc1ccc(NC(=O)CN(C)C(=O)c2ccccc2Cc2ccccc2)cc1,"inconclusive [inhibitor, full curve, poor fit]",
N/C(=N\S(=O)(=O)c1cccs1)c1ccccc1,"inconclusive [inhibitor, single point]",
Cn1c(Cc2cccs2)nnc1SCC(=O)Nc1ccc(C(N)=O)cc1,,inactive: -2.89%
COc1ccc(-n2cnnc2SCC(=O)Nc2cccc(S(=O)(=O)N3CCCCC3)c2)cc1,"inconclusive [inhibitor, partial curve]",
C[C@H](NC(=O)c1nc[nH]c1C(=O)N[C@@H](Cc1ccccc1)C(=O)OC(C)(C)C)C(=O)OCc1ccccc1,"inconclusive [inhibitor, partial curve, poor fit]",
Cc1ccc(-c2cc(C(=O)Nc3cc(C)on3)c3ccccc3n2)cc1,"inconclusive [inhibitor, full curve, poor fit]",
COc1ccc(/C=C(\C#N)C(=O)Nc2cc(S(=O)(=O)N3CCCCC3)ccc2N2CCCCC2)cc1,,inactive: -10.5%
Cc1[nH]n(-c2ccccc2)c(=S)c1C=Nc1cccc([N+](=O)[O-])c1,"inconclusive [inhibitor, full curve, poor fit]",
N#CCCOC1(C#CCN2CCCC2)CCCCC1,"inconclusive [inhibitor, partial curve, poor fit]",
CCn1cc(/C=C(\NC(=O)c2ccccc2F)C(=O)NCCCn2ccnc2)c2ccccc21,"inconclusive [inhibitor, full curve]",
CCOCCCNC(=O)C1c2ccccc2Oc2ccccc21,"inconclusive [inhibitor, full curve]",
C/C=C(\C)CN1CCC(n2nccc2NC(=O)CCc2ccccc2)CC1,"inconclusive [inhibitor, full curve, poor fit]",
O=C1c2ccccc2C(=O)N1CCCc1nc(-c2ccncc2)no1,"inconclusive [inhibitor, full curve]",
Cc1[nH]c2ccccc2c1/C=N/Nc1ccc(F)cc1F,"inconclusive [inhibitor, single point]",
CC1=C(C(=O)OCc2ccccc2)C(c2ccccc2)NC(=O)N1CCCCCC(=O)O (stereo not given),"inconclusive [inhibitor, full curve, poor fit]",
CC1CCN(S(=O)(=O)c2ccc3c(c2)C(=NO)c2cc(S(=O)(=O)N4CCC(C)CC4)ccc2-3)CC1,"inconclusive [inhibitor, full curve]",
Cc1ccc(-n2c(C)cc(/C=N/NC(N)=S)c2C)cc1,,inactive: -9.95%
CC(Sc1nnc(COc2ccc3ccccc3c2)n1C)C(=O)O (stereo not given),"inconclusive [inhibitor, full curve, poor fit]",
COc1ccc(Cn2c(=O)c3oc4ccccc4c3n(Cc3cccc(C)c3)c2=O)cc1,,inactive: -7.52%
CN(CC(=O)Nc1ccccc1Br)C(=O)CCc1nc2ccccc2c(=O)[nH]1,"inconclusive [inhibitor, partial curve, poor fit]",
